# Assay results from the RNAGym collection of RNA variant scans (doi:10.1101/gad.245936.114).
# This sample is rich in variants without activity.
# B1: tRNA (parent)
# chain: CUCUCGGUAGCCAAGUUGGUUUAAGGCGCAAGACUUUAAUUUAUCACUACGAAAUCUUGAGAUCGGGCGUUCGACUCGCCCCCGGGAGAUUUUUUCCUCGAGCAA
# Variants of: B1
# Experiment: nonsense suppression (GFP-seq) (ratio to wild type); higher = more function; SUP4oc tRNA, yeast GFP reporter sort-seq
# How it was run: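 Each variant's nonsense suppression (GFPSEQ) is a cell-share-weighted bin median GFP/RFP relative to the unmutated parent tRNA. Yeast with genome-integrated tRNA variants from a ~3% random-mutation library, a galactose-driven GFP ochre reporter and RFP were grown in raffinose/galactose medium with 80 mg/L adenine, then sorted into GFP/RFP bins for Illumina sequencing. Variants needed ≥100 reads and ≥30 cells.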
row,Variant,nonsense suppression
1,C3A C11A C34U G69C,≤ 0.026
2,U2G G84U,≤ 0.026
3,U2G C12A G15U G88C,≤ 0.026
4,C3A C5U U22C,≤ 0.026
5,U2C C29A C56A A60U,≤ 0.026
6,C3A C27A C81A,≤ 0.026
7,C3A A9G C64G,≤ 0.026
8,U2A U57A U63A C72G G73A C82G,≤ 0.026
9,U2C U20C A24U,≤ 0.026
10,C3A A54C G73C A74C,≤ 0.026
11,U2C C29A U58G G59A,≤ 0.026
12,U2C A62G G67U A89C,≤ 0.026
13,C3A A54G G66C,≤ 0.026
14,C3A A33U U57A U70A C72U C82G,≤ 0.026
15,U2G G19U A31U C83A G84A,≤ 0.026
16,U2G A9G U76A,≤ 0.026
17,U2G G10U G26C A60G,≤ 0.026
18,U2C A31U G67C G73U,≤ 0.026
19,U2G G10U C34G,≤ 0.026
20,U2A U16G G25C U55A,≤ 0.026
21,U2C C5U C72A,≤ 0.026
22,U2A U63A,≤ 0.026
23,U2G U58A,≤ 0.026
24,U2G G26A G59A G61U,≤ 0.026

row,Variant,nonsense suppression
1,U2C G10A A24G A30U C34A,≤ 0.026
2,U2G U71C C77G,≤ 0.026
3,U2C C27U,≤ 0.026
4,U2C C27G,≤ 0.026
5,U2G U71G,≤ 0.026
6,U2G U71A,≤ 0.026
7,U2A U63G G88A,≤ 0.026
8,U2C A89U,≤ 0.026
9,U2G C11U G15C U70C,≤ 0.026
10,U2C G6A A30C C34A,≤ 0.026
11,U2C C11A C56G G66U,≤ 0.026
12,U2A U58A U76A,≤ 0.026
13,U2G G88A,≤ 0.026
14,U2G A23U U58G G88U,≤ 0.026
15,U2G G25U U57G G73C,≤ 0.026
16,U2G C11A A74C G84C,≤ 0.026
17,C3A A14G G73C G85C,≤ 0.026
18,C3A C12G U57C A87U,≤ 0.026
19,U2C C12U G15U A31C U76C,≤ 0.026
20,U2C U35G,≤ 0.026
21,U2C C12G,≤ 0.026
22,U2C G18U G32U G65U U71C,≤ 0.026
23,U2A U35C G73C,≤ 0.026
24,U2A U35A U71G G86A,≤ 0.026

row,Variant,nonsense suppression
1,U2G G65A G67C C72U C75G,≤ 0.026
2,U2G U8C,≤ 0.026
3,U2G C3U U20C A23C G59A C72A,≤ 0.026
4,U2G G65A G67C C72G C75G,≤ 0.026
5,U2C C56A G61A C83G,≤ 0.026
6,U2G G18A G59U A62G C77G,≤ 0.026
7,U2G U58G C83G,≤ 0.026
8,C3A A9U A23U U63C G88U,≤ 0.026
9,C3A A24U,≤ 0.026
10,U2C G7U C77G,≤ 0.026
11,U2C C82G,≤ 0.026
12,U2C U4G G86C,≤ 0.026
13,U2C G25A A30C G59U,≤ 0.026
14,U2G C27U A30G C79U C83A,≤ 0.026
15,U2C G32A G84A,≤ 0.026
16,U2G U4A A31G A54U,≤ 0.026
17,U2G C3U A74U,≤ 0.026
18,U2C U63G G73A,≤ 0.026
19,C3A C27G G65A,≤ 0.026
20,U2C G6U C34A A60U,≤ 0.026
21,C3A A14U C34U U35C G88U,≤ 0.026
22,U2G U35G U57G G85C A89G,≤ 0.026
23,U2C G7A U20G,≤ 0.026
24,U2C G78C,≤ 0.026

row,Variant,nonsense suppression
1,U2C G7C U20G G61C,≤ 0.026
2,U2G U4G C27U U76G,≤ 0.026
3,U2C C3G C27U A54G G59A,≤ 0.026
4,U2G C11G C29A U71C G73C,≤ 0.026
5,U2C C56A U71G,≤ 0.026
6,U2C U8G G61C U70A G78A,≤ 0.026
7,C3A C27G U63G G86A,≤ 0.026
8,U2C G26A A89U,≤ 0.026
9,U2G G6A G18U G19A C27G A31U U58G G84U A87U,≤ 0.026
10,C3A C29U,≤ 0.026
11,U2G U16G,≤ 0.026
12,U2G C3A G15U U55A G59C,≤ 0.026
13,U2G C75A C79G,≤ 0.026
14,U2G A30U,≤ 0.026
15,U2G A30C,≤ 0.026
16,U2G U70A C81G,≤ 0.026
17,U2G C11A,≤ 0.026
18,U2G U57C A60C,≤ 0.026
19,C3A A13U C29U U57C A60G,≤ 0.026
20,U2G A14U,≤ 0.026
21,U2C A14U G28A A74U G88U,≤ 0.026
22,U2C C5U A14C C72G,≤ 0.026
23,U2C U76G,≤ 0.026
24,U2G C34U,≤ 0.026

row,Variant,nonsense suppression
1,U2G C34G,≤ 0.026
2,U2G C27A U76C,≤ 0.026
3,U2G G78U,0.0774
4,U2C A60U,0.194
5,U2G C3U C27G G66A U70C,≤ 0.026
6,U2G A24U G78A,≤ 0.026
7,U2C G6A C56U,≤ 0.026
8,U2G G19U C34G U71A C82U,≤ 0.026
9,U2C U57G G73A,≤ 0.026
10,C3A A62C G85C,≤ 0.026
11,U2G A33C C77A,≤ 0.026
12,U2C G10U G19U U22G A31U G67C,≤ 0.026
13,U2G C82U,≤ 0.026
14,U2C G15A U21C A74U,≤ 0.026
15,U2C G25U G61C G67C C80A,≤ 0.026
16,U2G G26U G69U,≤ 0.026
17,U2C C68A C72G,≤ 0.026
18,U2C C79G,≤ 0.026
19,C3A C11G G66C C77G C79G G86U,≤ 0.026
20,U2G G69A,≤ 0.026
21,U2C G7C A30U G32C A33G,≤ 0.026
22,U2G C11U G18C,≤ 0.026
23,C3A A54G G88C,≤ 0.026
24,U2C C3U,≤ 0.026

row,Variant,nonsense suppression
1,U2G A30U C34G,≤ 0.026
2,U2G U63A U70G A74C,≤ 0.026
3,U2G G6C A89C,≤ 0.026
4,U2G C27G A31G C64G C72G G86A,≤ 0.026
5,U2G G18A A24C C75G,≤ 0.026
6,U2G U57G G88A,≤ 0.026
7,U2C G7C G19U U71G C80A A87G,≤ 0.026
8,U2C C81G,≤ 0.026
9,U2C U20C,0.0975
10,U2C G86U,≤ 0.026
11,U2C G86A,≤ 0.026
12,U2G G73C,≤ 0.026
13,U2A U20C,≤ 0.026
14,U2A U20A,≤ 0.026
15,U2G A60C C75G,≤ 0.026
16,U2C A14C G19A G26A C27G U58A,≤ 0.026
17,U2C G59U,≤ 0.026
18,U2G A23C U76C,≤ 0.026
19,U2C U4C A9G A24C C80A,≤ 0.026
20,U2G A13U C29A,≤ 0.026
21,C3A C27G G32A U35G U71A,≤ 0.026
22,C3A C12U G65C G85C,≤ 0.026
23,C3A A33C G66A,≤ 0.026
24,U2A U20C U21A C79G G88C,≤ 0.026

row,Variant,nonsense suppression
1,U2G C3A G26U G32C U63A A87C,≤ 0.026
2,U2A U63C G84U,≤ 0.026
3,U2C G85A,≤ 0.026
4,U2G U35G,≤ 0.026
5,U2C C34G C56A G66C,≤ 0.026
6,U2C G69A,≤ 0.026
7,U2C G69C,≤ 0.026
8,C3A A23C G32A,≤ 0.026
9,U2C A24G A31C A60C C82A G85C,≤ 0.026
10,U2C C12A A30U,≤ 0.026
11,U2C U17G A31G A54C,≤ 0.026
12,U2G G15U G73A,≤ 0.026
13,U2C C5G A31G,≤ 0.026
14,U2C G19C C82A,≤ 0.026
15,U2C A24C A33C C82A A87U,≤ 0.026
16,U2A U16G G32A C34G U55A,≤ 0.026
17,U2C G88A,≤ 0.026
18,U2C G88U,≤ 0.026
19,U2C G66A,≤ 0.026
20,C3A C11U G32A U58C A60C A89U,≤ 0.026
21,U2C G15A G25C G32A,≤ 0.026
22,U2C A9U A30G U55C,≤ 0.026
23,U2G G61A,≤ 0.026
